# Measured values taken from PubChem BioAssay AID686978 (National Center for Advancing Translational Sciences (NCATS), 2013).
# In all, about 420,000 compounds went through this assay and about 64,000 (15%) were called active. Inconclusive results, whose numbers are uncertain, are shown with a selection of clear calls. Calls follow the shape of the dose curve; as a rule, active = well fitted inhibition curve with a large enough effect; inconclusive = small, poorly fitted or top-dose-only effect; inactive = flat fitted curve, though single readings scatter. Potencies of inconclusive entries are left out as doubtful fits.
# Experiment: qHTS for Inhibitors of human tyrosyl-DNA phosphodiesterase 1 (TDP1): qHTS in cells in absence of CPT; also: nearly all actives have a fitted effect of over 55% in size
# Details: DT40 Tdp1-/- hTDP1 cells, no CPT, ATP luminescence, 48 h; activity change, negative = growth inhibition: at 46.2 µM (top of the series) unless noted
# Method in brief: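 Growth of hTDP1-complemented DT40 Tdp1-knockout cells is measured by ATP luminescence after at least 48 hr compound exposure at 37 °C, with DMSO substituting for the 20 nM CPT used in the parallel screen.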
# % is scaled to controls: 0 for no effect and ±100 for the full control effect; potency is read from the fitted curve at half-maximal effect; tags tell the direction and shape of the fitted curve.
SMILES,Potency,"activity change, negative = growth inhibition"
COc1ccccc1N(C)S(=O)(=O)c1ccc(C(=O)OCC(N)=O)cc1,inactive,–
C/C(=N\Nc1ccc(Cl)c(C(=O)O)c1)c1cccc([N+](=O)[O-])c1,inactive,–
COc1cc(NC(=O)CSc2ncccc2C(=O)OC(C)C)cc(OC)c1,"inconclusive [inhibitor, single point]",–
CC(C)c1csc(CN2CCC(n3nccc3NC(=O)Cc3ccccc3)CC2)n1,active: 25.9 µM,–
COc1ccc(CC(=O)OCc2csc(CC(=O)Nc3ccc(C)cc3)n2)cc1,"inconclusive [inhibitor, partial curve]",–
O=C(O)c1ccccc1S(=O)(=O)CC(=O)N1CCCCC1,inactive,–
CNc1cncc(-c2cccc(C(=O)N(C)C)c2)n1,"inconclusive [inhibitor, partial curve]",–
Fc1cccc(CSc2ncnc3c2oc2ccccc23)c1,"inconclusive [inhibitor, partial curve]",–
CCOC(=O)Nc1nnc(/C=C/c2ccc(OC)cc2)s1,"inconclusive [inhibitor, single point]",–
COC(=O)c1ccc(C23CC4(C2)[C@H](CN(C)[C@@H]4c2ccccc2)C3c2ccccc2)cc1 (stereo not given in full),"inconclusive [inhibitor, single point]",–
O=C(c1ccc(S(=O)(=O)N2CCCCCC2)cc1)N1CCN(c2ccccn2)CC1,"inconclusive [inhibitor, single point]",–
COc1ccc(COC(=O)c2sc3nc4n(c(=O)c3c2C)CCC4)cc1,"inconclusive [inhibitor, single point]",–
CCCc1nc(N2CCOCC2)c(C#N)c2c1CCCC2,"inconclusive [inhibitor, partial curve]",–
Cc1nn(C)cc1[C@@H]1C[C@H]2CN(Cc3cccc(Cl)c3)C(=O)[C@]23CCCN13,"inconclusive [inhibitor, partial curve]",–
CC(C)(O)C#Cc1ccc(CN2CCN(Cc3ccccc3)C(CCO)C2)s1 (stereo not given),"inconclusive [inhibitor, single point]",–
Cc1cccc(-n2ncc3c(NC4CCCCC4)ncnc32)c1,"inconclusive [inhibitor, single point]",–
CSCC[C@H](NC(=O)N1CCn2c1nc1ccccc12)C(=O)NCc1ccc2c(c1)OCO2,inactive,–
CC(C)CC(c1nnnn1Cc1ccccc1)N1CCN(C(=O)c2ccco2)CC1 (stereo not given),"inconclusive [inhibitor, single point]",–
Cc1ccc(C(=O)NCCCn2ccnc2)cc1[N+](=O)[O-],inactive,–
O=C(c1cccc(F)c1F)N1CCCc2ccccc21,"inconclusive [inhibitor, single point]",–
CCOc1ccc(N(C)S(=O)(=O)c2ccc(C)c(C(=O)Nc3nnc(C4CC4)s3)c2)cc1,active: 4.61 µM,–
CCN1C(C(=O)c2ccccc2)=C(OC(=O)c2ccccc2OC)c2ccccc2S1(=O)=O,active: 3.26 µM,–
CC(C)(C)CC(=O)O/N=C(\N)c1ccccn1,inactive,–

SMILES,Potency,"activity change, negative = growth inhibition"
CCCn1c(=O)c(C(=O)NCc2ccc(OC)c(OC)c2)c(O)c2ccccc21,"inconclusive [inhibitor, partial curve]",–
COc1ccc(S(=O)(=O)N2CCN(CCCOc3ccc(F)cc3)CC2)cc1OC,active: 20.6 µM,–
CCOC(=O)CSc1nc2c(c(=O)n(Cc3ccccc3Cl)c(=O)n2C)n1C,inactive,–
Cc1cc2cc(CN(CCN3CCOCC3)C(=O)Nc3ccccc3F)c(=O)[nH]c2cc1C,"inconclusive [inhibitor, single point]",–
Nc1cc(N)c2c(c1)C(=O)c1ccccc1-2,–,inconclusive: -33.6% [inhibitor]
C[C@H](N=C(NC#N)Nc1ccncc1)C(C)(C)C,"inconclusive [inhibitor, partial curve, poor fit]",–
Cc1cccn2c(=O)c3cc(C(=O)NC4CCCC4)c(=N)n(C4CCCCC4)c3nc12,"inconclusive [inhibitor, partial curve]",–
COCCSc1ccccc1C(=O)Nc1ccc(Br)cc1,"inconclusive [inhibitor, partial curve]",–
CC(=O)c1cc2c(cc1N/C(=N/S(=O)(=O)c1ccc(C)cc1)c1ccc(F)cc1)OCO2,inactive,–
O=C(c1ccco1)N1N=C2CCCCCC2C1(O)C(F)(F)F (stereo not given),inactive,–
Cc1n[nH]c(=S)n1/N=C/c1c(O)ccc2ccccc12,inactive,–
COc1ccc(-c2nc(CS(=O)CC(=O)N3CCc4ccccc4C3)c(C)o2)cc1 (stereo not given),"inconclusive [inhibitor, partial curve]",–
Cc1ccccc1NC(=O)Cc1nc(-c2c[nH]c(C(=O)N3CCCC3)c2)cs1,"inconclusive [inhibitor, single point]",–
CCOc1ccc(-c2nc(CSCC(=O)NCc3ccc(Cl)cc3)c(C)o2)cc1,"inconclusive [inhibitor, single point]",–
CCc1nc2ccccc2c(C(=O)OCC(=O)Nc2cccc(S(=O)(=O)NC3=NCCCCC3)c2)c1C,active: 4.61 µM,–
CCn1c(NCc2cccc(OC)c2OC)nc2ccccc21,"inconclusive [inhibitor, single point]",–
O=S1(=O)c2ccccc2N(Cc2cccc(Cl)c2)c2ccccc21,"inconclusive [inhibitor, single point]",–
O=C1C(=O)N(c2ccccc2)c2ccccc21,"inconclusive [inhibitor, single point]",–
Cc1cc(C(=O)Nc2ccc(F)cc2C)n(-c2ccccc2)n1,"inconclusive [inhibitor, single point]",–
COc1ccc(CCNC(=O)c2ccc3c(c2)ncn3-c2ccc(C)cc2C)cc1OC,active: 20.6 µM,–
CCc1ccc(S(=O)(=O)c2nnn3c2nc(NC(C)C)c2sccc23)cc1,"inconclusive [inhibitor, single point]",–
Cc1c(C(=O)N2CCN(c3ccccc3)CC2)sc2nc3n(c(=O)c12)CCC3,inactive,–
